From PubChem BioAssay AID602393 (Broad Institute, 2012)
“And” between values parts separate entries of the source, which are not always exact repeats. Equal values may be shown once. The whole screen tested about 350,000 compounds, of which about 7,000 (2%) were called active. Inconclusive means that the source gave no clear call. Such entries were picked first, then a sample of the others. Rule as the data show it: active = activation above about 40%; inconclusive = no clear call, values can overlap the other calls; inactive = below that.

Assay: raisers of Bmi1 knock-in reporter signal – mouse ES cells, Bmi1 luciferase knock-in, single point, esBAF inhibitor project, primary screen (AID 602393);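 also: 0% = median of the plate's neutral control wells and 100% = double that signal; a rise in the Bmi1 reporter signal indicates esBAF inhibition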
Settings: 24 h, at 12.5 µM, hits give high values, 100% = twice the neutral-well signal

Reporter increase, inconclusive:
Cn1c(CN2CCCCC2)nc2cc(NC(=O)c3ccc(Cl)cc3)ccc21 44.3%
C=CCNc1nc(NCc2ccc(N(C)C)cc2)c2sc(-c3ccccc3)cc2n1 41.3%
CCOC(=O)Cc1csc(NC(=O)c2ccc(Cl)s2)n1 30.8%
COC(=O)c1c(-c2cccs2)csc1NC(=O)c1cccnc1 46.2%
Oc1ccc(-c2nnc(SCC3CCCCC3)o2)cc1 44%
Cc1cccc(NC(=O)c2cnc3sccn3c2=O)c1C 45.6%
Brc1ccc(/C=N/Nc2ccc3ccccc3n2)cc1 43.2%
O=C(/C=C/c1ccccc1)NC(=O)c1ccccc1O 44.7%
COc1ccc(-c2cc(=Nc3c(C)n(C)n(-c4ccccc4)c3=O)c3ccccc3o2)cc1 54.7%
Cc1ccc(N(O)C(=O)NCCCCNC(=O)N(O)c2ccc(C)cc2)cc1 43.5%
CC1CCN(C(=O)c2ccc(-c3ccccc3Cl)o2)CC1 48.1%
COc1cccc(NC(=O)c2cccs2)c1 61.1%
Cc1cc(C)c(C(=O)Nc2ccc3c(c2)OCCO3)c(C)c1 42%
COc1cccc(CNc2cc(C)ccn2)c1O 41.4%
Fc1cccc(Cl)c1CSc1nnc(-c2ccncc2)o1 43.2%
COc1ccc(NC(=O)CSc2ccccn2)c([N+](=O)[O-])c1 51.3%
Cn1c2ccccc2c(=O)c2ccc(NCCc3cccs3)cc21 42.5%
Cc1nnc(NC(=O)c2ccc(N3CCCC3=O)cc2)s1 41.8%
Fc1ccc2nc(N3CCCC3)sc2c1 43.1%
COc1cccc2[nH]c(C(=O)NCCc3ccccc3)cc12 39%
COC(=O)C(Cc1ccc(O)cc1)N1Cc2ccccc2C1=O (stereo unspecified) 39.7%
COc1ccc2nc3cccc(OC)c3nc2c1 42.6%
CCOc1ccc(C(=O)N(CC)CC(=O)Nc2ccc3c(c2)OCCO3)cc1 42.9%
O=C(NN=Cc1ccccc1)c1ccccc1 42.1%
Cc1cc(=O)n2[nH]c(-c3ccc(Cl)cc3)cc2n1 49.9%
CCOc1ccc(-c2nnc(N(CC)C(=O)C3CCC3)s2)cc1 41.4%
Clc1ccc2nc(COc3ccccc3)[nH]c2c1 39%
O=c1c(-c2nc3ccccc3s2)cccn1Cc1ccccc1 40.5%
O=C(/C=C/c1ccco1)Nc1ccccc1C(=O)O 20.4%
COc1ccc(-c2csc(NC(=O)c3ccccc3F)c2C(=O)O)cc1 59.6%
Cc1csc(NC(=O)c2oc3ccccc3c2C)n1 43.6%
COc1cc(NC(=O)c2c(OC)cccc2OC)ccc1NC(=O)c1cc2ccccc2o1 64.6%
Cn1cc([N+](=O)[O-])c(C(=O)Nc2ccc3nc(-c4ccccc4)[nH]c3c2)n1 40.6%
c1ccc(CSc2snnc2-c2ccccc2)cc1 46.9%
COc1cccc(N/C=C/c2onc(C)c2[N+](=O)[O-])c1 54.7%
c1ccc(-c2nnn(C34CC5CC(CC(C5)C3)C4)n2)cc1 40.2%
Cn1c(CNc2ccc(Cl)cc2)nc2ccccc21 42.6%
Cc1ccccc1-c1nnn(Cc2ccc(F)cc2Cl)n1 48.9%
CC1CCCCN1C(=O)c1cc(-c2ccc(Cl)c(Cl)c2)on1 (stereo unspecified) 60.5%
Cc1occc1C(=O)OCC(=O)Nc1ccc(F)cc1 41.7%
COc1cccc2sc(Nc3nc(-c4ccccn4)cs3)nc12 41.5%
O=C(Nc1ccc(Cl)cc1)/C(=C1\CCCN1)[N+](=O)[O-] 36.7%
O=C(OCC(=O)N1CCCCC1)c1cc(=O)[nH]c2ccccc12 41.7%
CCOC(=O)c1c(C)[nH]c(C=Nc2ccc(OC)cc2)c1O 40.9%
NC(=O)c1ccccc1OCC(=O)Nc1ccc2c(c1)OCCO2 43.1%
Cc1ccc(OCC(=O)Nc2ccon2)c([N+](=O)[O-])c1 40.3%
Cc1ccc(NC(=O)C2CC2c2ccccc2)c([N+](=O)[O-])c1 (stereo unspecified) 38.6%
CCN(CC)S(=O)(=O)c1cccc(C(=O)N/N=C(\C)c2cccs2)c1 43.3%
COC(=O)c1ccc(NC(=O)c2ccc(C)cc2)o1 40.7%
O=C(Nc1ccccc1)O/N=C/c1ccccc1Cl 41.7%
CCCNC(=O)C1CC(=O)N(c2ccc(OCc3ccc(F)cc3)cc2)C1 (stereo unspecified) 29.2%

Reporter increase, inactive:
CC(C)C#Cc1ccc2c(c1)O[C@H](CN(C)Cc1cncnc1)[C@@H](C)CN([C@@H](C)CO)S2(=O)=O 4.8%
CN1C(=O)c2cc(NS(C)(=O)=O)ccc2OC[C@H]2O[C@@H](CC(=O)NCc3ccccc3)CC[C@H]21 -5.04%
COc1ccc(NC(=O)Nc2ccc3c(c2)C(=O)N(C)C[C@H](OC)[C@H](C)CN[C@@H](C)CO3)cc1 -0.673%
Cc1nnc(C)c2c(C)n(-c3ccccc3)c(C)c12 9.2%
C[C@@H]1CCCCO[C@H](CN(C)C)[C@H](C)CN([C@H](C)CO)C(=O)c2cc(NC(=O)Nc3ccc(C(F)(F)F)cc3)ccc2O1 -4.84%
Cc1cc(C)c2[nH]c(O)c(N=NC3=NC(=O)CS3)c2c1 -2.34%
CC(C)NC(=O)N(C)C[C@H]1Oc2ccc(NS(=O)(=O)c3cn(C)cn3)cc2CC(=O)N([C@H](C)CO)C[C@@H]1C -0.873%
Cc1ccc(S(=O)(=O)NCC[C@H]2CC[C@H](NC(=O)c3cccnc3)[C@@H](CO)O2)cc1 1.96%
C[C@@H]1CCCCO[C@@H](CN(C)Cc2ccc3c(c2)OCO3)[C@H](C)CN([C@@H](C)CO)C(=O)c2cc(NS(=O)(=O)c3cccs3)ccc2O1 -1.15% and -5.19%
Cc1ccccc1-c1cnc2c(c1)C(=O)N([C@@H](C)CO)C[C@H](C)[C@H](CN(C)Cc1cccnc1)O2 -2.08%
COCC(=O)N(C)C[C@@H]1Oc2cc(-c3ccccc3F)ccc2S(=O)(=O)N([C@H](C)CO)C[C@@H]1C 0.856%
CCc1cc(=O)[nH]c(SCCc2ccccc2)n1 3.83%
O=C(C[C@H]1C[C@H]2c3cc(NC(=O)Nc4ccc(C(F)(F)F)cc4)ccc3O[C@H]2[C@H](CO)O1)NCCc1ccccc1 0.414%
Cc1nn(C(=O)CCC(=O)NCCc2ccccc2)c2ccccc12 -8.53%
O=C(COc1ccccc1Cl)N1CCc2ccccc2C1 31.5%
COc1ccccc1S(=O)(=O)N[C@@H]1CC[C@@H](CC(=O)NCc2cccc(F)c2)O[C@@H]1CO 2.11%
Cc1cc2cc(CN(Cc3cccs3)C(c3nnnn3C(C)(C)C)C(C)C)c3nnnn3c2cc1C (stereo unspecified) -8.74%
O=C1C(Cl)=C(N2CCOCC2)C(=O)N1c1ccccc1Cl 4.95%
COc1ccc(S(=O)(=O)N2CCC(NC(=O)Nc3ccc(C)cc3)CC2)cc1 -1.91%
O=C(Nc1nnc(SCc2ccc(Cl)cc2)s1)C1CC(=O)N(Cc2ccccc2)C1 (stereo unspecified) -13.6%
C[C@@H]1CN([C@H](C)CO)C(=O)Cc2cc(NC(=O)Cc3ccccc3)ccc2O[C@H]1CN(C)S(=O)(=O)c1ccccc1 -2.08%
CCc1ccccc1NC(=O)CSc1nnc([C@@H]2CCCN2C(=O)OC(C)(C)C)o1 -11.4%
C[C@@H]1CCCCO[C@H](CN(C)S(C)(=O)=O)[C@H](C)CN([C@@H](C)CO)C(=O)c2cc(NC(=O)Nc3ccc(F)cc3)ccc2O1 -0.208%
CCSc1nsc(NC(=O)Nc2ccc(F)cc2F)n1 15.6%
Cc1noc(C)c1NC(=O)Nc1ccc2c(c1)CC(=O)N([C@H](C)CO)C[C@H](C)[C@@H](CN(C)C(=O)Nc1ccc(F)cc1)O2 -4.78%
COCc1cn(CC[C@@H]2CC[C@H](NC(=O)c3ccncc3)[C@@H](CO)O2)nn1 -4.72%
C[C@@H]1CN([C@H](C)CO)C(=O)Cc2cc(NC(=O)Nc3ccc(F)cc3)ccc2O[C@H]1CN(C)Cc1ccc(Cl)c(Cl)c1 10.2%
O=C(NCC[C@H]1CC[C@@H](NS(=O)(=O)Cc2ccccc2)[C@H](CO)O1)C1CCC1 -1.22%

Reporter increase, active:
CCCCSc1nnc(-c2ccccc2N)c(=O)[nH]1 96.7%
O=c1[nH]c2ccccc2nc1/C=C/c1ccc(O)cc1 51.1%
COc1ccc(C(=O)N/N=C/C(=O)c2ccccc2)cc1 62.1%
O=C(Cn1cnc2c(oc3ccccc32)c1=O)c1ccccc1 69.6%
CN(C)c1ccc(C(O)c2cc3ccccc3s2)cc1 (stereo unspecified) 52%
Cc1oc(-c2ccc(-c3ccccc3)cc2)nc1CN(CCO)C(C)C 59.8%
c1ccc(OCCNc2ccn3nc(-c4ccccc4)cc3n2)cc1 53.4%
